Assay results: paper PMC6919601, “Identification of Plasmodium dipeptidyl aminopeptidase allosteric inhibitors by high throughput screening” (PLoS ONE, 2019)
The campaign covered roughly 110,000 compounds. About 230 (0.21%) showed an effect of 50% or more. This is one part of the list.

These molecules were tested against DPAP1 (Plasmodium falciparum, UniProt Q8IIJ9) (assay: primary screen, percent inhibition; read by cleavage of a fluorogenic dipeptide substrate; higher = more effect of the substance).
Design: species or system P. falciparum D10 trophozoite lysates; single well
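Also: 30 min substrate incubation versus DMSO and 10 µM JCP410 controls.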

Sequence of DPAP1 (Q8IIJ9 whole entry, looked up): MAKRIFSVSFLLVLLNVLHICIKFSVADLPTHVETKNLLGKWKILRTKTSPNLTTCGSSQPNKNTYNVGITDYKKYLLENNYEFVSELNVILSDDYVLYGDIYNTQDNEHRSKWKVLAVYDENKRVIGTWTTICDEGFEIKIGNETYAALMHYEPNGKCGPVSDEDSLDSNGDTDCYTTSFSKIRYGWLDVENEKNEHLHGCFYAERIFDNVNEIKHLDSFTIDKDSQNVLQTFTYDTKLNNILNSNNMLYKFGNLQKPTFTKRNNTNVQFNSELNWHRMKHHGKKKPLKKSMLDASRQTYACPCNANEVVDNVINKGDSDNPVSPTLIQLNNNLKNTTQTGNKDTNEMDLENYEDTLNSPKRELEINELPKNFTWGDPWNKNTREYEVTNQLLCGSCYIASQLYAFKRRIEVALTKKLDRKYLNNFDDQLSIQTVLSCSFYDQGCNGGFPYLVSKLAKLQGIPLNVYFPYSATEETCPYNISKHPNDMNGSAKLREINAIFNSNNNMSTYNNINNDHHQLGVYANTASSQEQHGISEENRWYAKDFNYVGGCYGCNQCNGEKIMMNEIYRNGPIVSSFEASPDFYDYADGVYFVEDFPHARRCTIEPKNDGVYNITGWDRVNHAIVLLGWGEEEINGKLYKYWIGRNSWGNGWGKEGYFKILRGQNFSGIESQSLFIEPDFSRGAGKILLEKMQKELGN

SMILES | % Inhibition @ 10 uM [%]
COc1cc(C2C(C#N)=C(N)Oc3[nH]nc(-c4ccccn4)c32)cc(OC)c1OC (centres unmarked) | 1.01
O=C1C(Cl)=C(Nc2cccc(C(F)(F)F)c2)C(=O)N1c1ccccc1 | 0.777
Cc1onc(-c2ccccc2)c1C(=O)NC(C)C1CC2CCC1C2 (centres unmarked) | -2.29
Cc1ccc2c(n1)sc1c(N)ncnc12 | -4.8
COc1ccc(OC)c(-n2cc3c(c2-c2ccc(Cl)cc2)c(=O)n(C)c(=O)n3C)c1 | 2.02
Cc1ccc(C)c(S(=O)(=O)c2nnn3c2nc(N2CCC(C(N)=O)CC2)c2sccc23)c1 | -2.55
O=C(C1CCCN(c2ncnc3onc(-c4ccc(F)cc4)c23)C1)N1CCN(c2ccccn2)CC1 (centres unmarked) | 5.89
CC(O)CNc1ncnc2c1c(-c1ccccc1)cn2-c1ccc(Br)cc1 (centres unmarked) | 3.67
COc1ccc(CN2CCN(Cc3cccnc3)CC2)c(OC)c1 | -2.82
COc1ccc(S(=O)(=O)NCc2cn3cccc(C)c3n2)cc1OC | 0.00665
Cc1noc(C)c1CSc1ncnc2sc3c(c12)CCC(C)C3 (centres unmarked) | 0.147
Cc1ccc(/C=C(\NC(=O)c2ccccc2)C(=O)NC2CC2)o1 | 2.7
CCOC(=O)/C(C#N)=C\c1cc(OCC)ccc1OCC | -4.58
CCCCN(C)C(=O)Cn1nc(-c2ccc(Cl)cc2)ccc1=O | -1.79
C=CCN(CC=C)c1nc(=O)c2sc3ccccc3c2s1 | -7.93
Cn1c(CSc2nc3c(N)ncnc3[nH]2)nc2ccccc21 | 4.05
CCCCNC(=O)C1c2ccccc2C(=O)N(C)C1c1c[nH]c2ccccc12 (centres unmarked) | -4.53
CCOc1ccc2nc(NC(=O)Cn3ncc4c3-c3cc(C)ccc3OC4)sc2c1 | 0.54
COc1ccc(OC)c(S(=O)(=O)NCc2cn3c(C)csc3n2)c1 | -2.45
CCn1ncc(C2=NOC(C(=O)NCc3ccc(OC)cc3)C2)c1C (centres unmarked) | -6.68
Cc1ccc(C(=O)Nc2cc(S(N)(=O)=O)ccc2C)cc1 | 1.65
Cc1cc(C)cc(NS(=O)(=O)c2ccc(NC(=O)c3cccs3)cc2)c1 | -2.19
O=C1CCCC(=O)C1=C1NC2(CCCCCC2)Cc2ccccc21 | 2.7
CC(C)=CCC12CN3CCN(CC(C3)C1=O)C2 | -0.0735
Cc1nn(C(C)C(=O)NC2CCCCC2C)c(=O)c2cc3occc3n12 (centres unmarked) | 4.55

SMILES | % Inhibition @ 10 uM [%]
CCOc1ccccc1-c1nc(CSc2nc3ncccc3o2)c(C)o1 | 4.75
O=C(NCc1cccnc1)c1cc(Sc2ccccc2Cl)nc2ccccc12 | 10.3
Cc1ccc(C2=N/C(=C\c3ccc(Cl)cc3)C(=O)O2)cc1 | 5.73
Cc1cc(=O)n2nc(N3CCC(C(=O)NCCCN4CC(C)CC(C)C4)CC3)sc2n1 (centres unmarked) | 3
CC(NC(=O)CSc1nc(O)c2ccccc2n1)c1ccccc1 (centres unmarked) | -2.8
O=C(O)c1ccccc1NC1=C(Cl)C(=O)N(c2ccccc2Cl)C1=O | 3.72
COC(=O)C1=C(C)NC(=O)CC1c1cccc(Oc2ccccc2)c1 (centres unmarked) | 3.82
O=C(Nc1ccc(Nc2ccccc2)cc1)C1CCCC1 | 3.48
CCCCCCNC(=O)c1[nH]ncc1[N+](=O)[O-] | -0.591
COC(=O)C1=C(C)OC(N)=C(C#N)C1c1cc(CSc2nc3ccccc3s2)cs1 (centres unmarked) | 4.58
O=C(C1CCCN1S(=O)(=O)c1cccc2nsnc12)N1CCn2c1nc1ccccc12 (centres unmarked) | 2.72
Cc1c(C(=O)N2CCCC2)oc2c1-c1nn(CC(=O)NCCC3=CCCCC3)cc1CC2 | 7.19
Cc1ccc(NCN2C(=O)C3CC=CCC3C2=O)c(C)c1 (centres unmarked) | 2.44
O=C(N/C(=C/c1ccc(F)cc1)C(=O)N1CCCC1C(=O)O)c1ccccc1 (centres unmarked) | -0.366
O=C1C2C3c4ccccc4C(c4ccccc43)C2C(=O)N1c1ccccc1[N+](=O)[O-] (centres unmarked) | -6.25
Cc1nn(CCCC(=O)NCCC2=CCCCC2)c(=O)c2nccn12 | -1.6
CCn1cc(CCCC(=O)NCCN2CCN(C)CC2)c2ccccc21 | 1.47
C=CCOc1ccc(C2C(C#N)=C(N)Oc3c2ccc2ccccc32)cc1OC (centres unmarked) | 0.385
C=C1c2cc(CC)ccc2NC(=O)N1CC | -8.64
CCOCCCNC(=O)C1CCN(C(=O)c2cc3sccc3n2CC)CC1 | 1.8
Fc1ccccc1N1CCN(C2CCC(c3ccccc3)CC2)CC1 (centres unmarked) | 3.19
COc1ccc(C2C(C#N)=C(N)Oc3[nH]nc(-c4cccs4)c32)c(OC)c1OC (centres unmarked) | -1.06
CCCCCCC(=O)N1c2ccccc2C(N(C(=O)c2ccc(F)cc2)c2ccccc2)CC1C (centres unmarked) | 5
CCn1c(-c2ccc(Cl)cc2)cs/c1=N\c1ccc(O)cc1 | -8.06
CN1CCN(C(=O)Nc2cn(C)c(=O)c3ccccc23)CC1 | 1.91

SMILES | % Inhibition @ 10 uM [%]
COc1ccc(CN2CCN(Cc3cccc(Cl)c3)CC2)c(OC)c1 | -2.22
Cc1ccc(S(=O)(=O)CCc2nnc(NC(=O)c3ccccc3)s2)cc1 | -2.27
CCCCNC(=O)c1cc(-c2ccccc2)nc2c(C)cccc12 | 2.79
Cc1ccc(C(=O)NCCNC(=O)CN2CCOCC2)cc1 | 0.408
CCc1nnc(NS(=O)(=O)c2ccc(NC(C)=O)cc2)s1 | -2.47
N#Cc1nc(-c2ccccc2)oc1NCc1ccccc1 | -0.0267
COCCNC(=O)c1ccc2c(c1)nc(C)n2-c1cc(OC)c(OC)c(OC)c1 | -0.458
Cc1c(CNC2CCCC2)c(C(=O)O)c(C)n1Cc1ccc(F)cc1 | -3.67
N#CC1=C(N)N(c2ccccc2F)C2=C(C(=O)CCC2)C1c1ccc(Cl)cc1 (centres unmarked) | -2.8
O=C(Cn1cnc2c(oc3ccccc32)c1=O)NCc1ccco1 | -10
CCCCN(C(=O)c1cc2c(s1)-c1ccccc1OC2)C1CCN(C(C)=O)CC1 | 1.89
COc1ccccc1C(=O)Nc1ccc(Oc2ccc(C(=O)O)c(C(=O)O)c2)cc1 | -1.57
COc1cc(CN2CCCCCC2)cc(OC)c1OC | -7.49
COc1cccc(-c2cc(C(=O)Nc3ccc(C(C)=O)cc3)c3ccccc3n2)c1 | 5.73
CCOC(=O)C1=C(CS(=O)(=O)c2ccccc2)NC(=O)NC1c1ccc(C(C)C)cc1 (centres unmarked) | -3.94
Cc1ccc(S(=O)(=O)NC2=NC(=O)CC(c3ccc(Cl)cc3)N2)cc1 (centres unmarked) | 10.6
NC(=O)C1(N2CCCCC2)CCN(CC(=O)Nc2ccc(Oc3ccccc3)cc2)CC1 | 7.48
CC(C)(C)C(=O)Nc1ccc(C(=O)Nc2ccc(Cl)cc2)cc1 | 6.43
O=C1CC(c2ccccc2F)NC(NC(=O)c2cccc(Cl)c2)=N1 (centres unmarked) | 0.0654
COc1ccccc1C1C(C(C)=O)=C(C)N=c2s/c(=C\c3ccc(OC)c4ccccc34)c(=O)n21 (centres unmarked) | -9.97
COc1ccccc1CNC(=O)CCn1nc(-c2ccccc2)ccc1=O | -0.0542
O=[N+]([O-])c1cccc(-c2nc(-c3ccccc3)no2)c1 | -2.86
COc1ccc(Br)cc1C1CC(=O)C(C)C(c2cc(Br)ccc2OC)N1 (centres unmarked) | 3.33
CCN1CCN(CCCc2ccccc2)CC1 | -3.57
Cn1cc(CCCC(=O)NCCN2CCOCC2)c2ccccc21 | -1.67

SMILES | % Inhibition @ 10 uM [%]
N#CCNC(=O)[C@H](CS(=O)(=O)Cc1c(F)c(F)c(F)c(F)c1F)NC(=O)c1ccccc1 | -3.49
O=C(NCCC1=CCCCC1)C1CCCN(S(=O)(=O)N2CCC3(CC2)OCCO3)C1 (centres unmarked) | 0.335
CNc1nc(N2CCOCC2)nc(N(c2ccccc2)c2ccccc2)n1 | -1.59
CCCCOc1ccc(CNC(=O)NS(=O)(=O)c2ccc(OCC(C)C)cc2)cc1 | 6.5
Cc1ccccc1Cn1c(-c2cccs2)noc1=O | -0.696
Cc1ccc(NC(=O)CCSc2ccc(Cl)cc2)cc1 | -0.511
CCN1CCN(C(=O)CS(=O)Cc2nc(-c3ccc(OC)c(OC)c3)oc2C)CC1 (centres unmarked) | -4.71
COc1ccc(S(=O)(=O)Nc2ccc3c(c2)OCO3)c(Cl)c1Cl | 2.95
CCOC(=O)C1=C(CC)OC(N)=C(C#N)C1c1ccc(F)c(F)c1 (centres unmarked) | -0.771
CCN(CC)CCCNC(=O)CCNC(=O)Cn1ccc2ccccc2c1=O | -5.87
CCOc1ccc(C2OC(=O)Cc3cc(OC)c(OC)cc32)cc1 (centres unmarked) | -6.88
c1ccc(-c2ccc(-c3nc(-c4ccncc4)no3)cc2)cc1 | 1.4
COc1cc(-c2nc3s/c(=C\c4ccccc4Cl)c(=O)n3n2)cc(OC)c1OC | 0.561
C=CCN1C(=O)S/C(=C/c2ccc(C#N)cc2)C1=O | 2.93
O=C(C1=C(O)C(=O)N(Cc2cccnc2)C1c1cccc(Oc2ccccc2)c1)c1cccs1 (centres unmarked) | 2.17
O=C(Cc1ccccc1)n1nc(-c2ccco2)nc1NCc1cccs1 | -6.98
COC(=O)c1cc(=O)n(Cc2cccs2)/c(=N/Cc2cccs2)s1 | -1.7
CC(NC(=O)Cn1c(=O)c2cccn2c2cccnc21)c1ccccc1 (centres unmarked) | -6.92
CCc1cccc(C)c1NC(=O)c1ccc(OC)c(OC)c1 | -0.564
Cc1c(C(=O)O)c2cc(O)c(Br)cc2n1C1CCCCCC1 | -4.04
O=C(NC1CCN(Cc2ccccc2)CC1)C1CCN(S(=O)(=O)c2cccc3nonc23)CC1 | 1.76
CC(NC(=O)c1cccnc1)C(c1cccs1)N1CCN(Cc2ccccc2)CC1 (centres unmarked) | 0.66
COCC(C)NC(C)Cc1ccc(F)cc1 (centres unmarked) | -5.31
